Measured values: EPA's CvTdb concentration-time database
This continues a long series; more values of the same kind are listed elsewhere.

Tests used:
Rat [1] = test: concentration in plasma after dosing; conditions: 8 min; dosed: 2-Methyltetrahydrofuran; 30 mg/kg; oral; Female; F344
Rat [2] = test: concentration in plasma after dosing; conditions: 1.5 h; dosed: 2-Methyltetrahydrofuran; 10 mg/kg; oral; Male; F344
Rat [3] = test: concentration in brain after dosing; conditions: 0.25 h; dosed: 2-Methyltetrahydrofuran; 10 mg/kg; oral; Female; F344
Rat [4] = test: concentration in brain after dosing; conditions: 0.75 h; dosed: 2-Methyltetrahydrofuran; 30 mg/kg; oral; Male; F344
Rat [5] = test: concentration in plasma after dosing; conditions: 4 min; dosed: 2-Methyltetrahydrofuran; 10 mg/kg; oral; Male; F344
Rat [6] = test: concentration in brain after dosing; conditions: 1.5 h; dosed: 2-Methyltetrahydrofuran; 100 mg/kg; oral; Male; Harlan Sprague Dawley
Rat [7] = test: concentration in plasma after dosing; conditions: 1.5 h; dosed: 2-Methyltetrahydrofuran; 400 mg/kg; oral; Female; Harlan Sprague Dawley
Rat [8] = test: concentration in brain after dosing; conditions: 20 min; dosed: 2-Methyltetrahydrofuran; 100 mg/kg; oral; Female; Harlan Sprague Dawley
Rat [9] = test: concentration in plasma after dosing; conditions: 2 h; dosed: 2-Methyltetrahydrofuran; 10 mg/kg; iv; Female; F344
Rat [10] = test: concentration in plasma after dosing; conditions: 20 min; dosed: 2-Methyltetrahydrofuran; 100 mg/kg; oral; Female; Harlan Sprague Dawley
Rat [11] = test: concentration in plasma after dosing; conditions: 10 min; dosed: 2-Methyltetrahydrofuran; 400 mg/kg; oral; Female; Harlan Sprague Dawley
Rat [12] = test: concentration in brain after dosing; conditions: 10 min; dosed: 2-Methyltetrahydrofuran; 10 mg/kg; oral; Female; F344
Rat [13] = test: concentration in plasma after dosing; conditions: 2 h; dosed: 2-Methyltetrahydrofuran; 30 mg/kg; oral; Male; F344
Rat [14] = test: concentration in plasma after dosing; conditions: 0.25 h; dosed: 2-Methyltetrahydrofuran; 10 mg/kg; iv; Female; F344
Rat [15] = test: concentration in brain after dosing; conditions: 4 min; dosed: 2-Methyltetrahydrofuran; 10 mg/kg; oral; Male; F344
Rat [16] = test: concentration in plasma after dosing; conditions: 1.5 h; dosed: 2-Methyltetrahydrofuran; 400 mg/kg; oral; Female; F344
Rat [17] = test: concentration in plasma after dosing; conditions: 0.75 h; dosed: Bromochloroacetic acid; 100 mg/kg; oral; Male; F344
Rat [18] = test: concentration in plasma after dosing; conditions: 2 min; dosed: Bromochloroacetic acid; 10 mg/kg; iv; Male; F344
Rat [19] = test: concentration in plasma after dosing; conditions: dosed: Bromochloroacetic acid, 80 mg/kg, iv, Male, F344
Rat [20] = test: concentration in plasma after dosing; conditions: dosed: Bromochloroacetic acid, 80 mg/kg, iv, Female, Harlan Sprague-Dawley
Rat [21] = test: concentration in plasma after dosing; conditions: 2 h; dosed: Formamide; 30 mg/kg; iv; Female; F344
Rat [22] = test: concentration in plasma after dosing; conditions: dosed: Formamide, 36 mg/kg, oral, Female, Harlan Sprague Dawley
Rat [23] = test: concentration in plasma after dosing; conditions: dosed: Formamide, 30 mg/kg, iv, Female, F344
Rat [24] = test: concentration in plasma after dosing; conditions: dosed: Formamide, 36 mg/kg, oral, Male, Harlan Sprague Dawley
Rat [25] = test: concentration in plasma after dosing; conditions: dosed: Formamide, 300 mg/kg, oral, Female, F344
Rat [26] = test: concentration in plasma after dosing; conditions: dosed: Formamide, 90 mg/kg, iv, Male, Harlan Sprague Dawley
Rat [27] = test: concentration in plasma after dosing; conditions: dosed: Formamide, 36 mg/kg, oral, Male, Harlan Sprague Dawley; remark: listed apart in the source
Rat [28] = test: concentration in plasma after dosing; conditions: dosed: Formamide, 30 mg/kg, iv, Female, F344; remark: listed apart in the source
Rat [29] = test: concentration in plasma after dosing; conditions: dosed: Formamide, 90 mg/kg, iv, Male, Harlan Sprague Dawley; remark: listed apart in the source
Rat [30] = test: concentration in plasma after dosing; conditions: dosed: Formamide, 90 mg/kg, iv, Male, Harlan Sprague Dawley; remark: listed apart in the source
Rat [31] = test: concentration in plasma after dosing; conditions: dosed: Pyridine, 5 mg/kg, iv, Female, F344
Rat [32] = test: concentration in plasma after dosing; conditions: dosed: Pyridine, 5 mg/kg, oral, Female, F344
Rat [33] = test: concentration in plasma after dosing; conditions: dosed: Pyridine, 25 mg/kg, oral, Female, F344
Rat [34] = test: concentration in plasma after dosing; conditions: 40 min; dosed: Pyridine; 50 mg/kg; oral; Female; F344
Rat [35] = test: concentration in plasma after dosing; conditions: dosed: Pyridine, 5 mg/kg, iv, Male, F344
Rat [36] = test: concentration in plasma after dosing; conditions: 40 min; dosed: Pyridine; 200 mg/kg; oral; Female; F344
Rat [37] = test: concentration in plasma after dosing; conditions: dosed: Pyridine, 25 mg/kg, oral, Female, F344; remark: listed apart in the source

CC1CCCO1 (stereo not drawn) [2-Methyltetrahydrofuran]
Conditions | concentration in brain [µg/g] | concentration in plasma [µg/mL]
Rat [1] | – | 14.6
Rat [2] | – | 0.454
Rat [3] | 3.05 | –
Rat [4] | 11 | –
Rat [5] | – | 3.95
Rat [6] | 29.4 | –
Rat [7] | – | 169
Rat [8] | 39.1 | –
Rat [9] | – | 0.13
Rat [10] | – | 48.2
Rat [11] | – | 162
Rat [12] | 1.93 | –
Rat [13] | – | 6.5
Rat [14] | – | 8.13
Rat [15] | 3.25 | –
Rat [16] | – | 201

O=C(O)C(Cl)Br (stereo not drawn) [Bromochloroacetic acid]
Conditions | concentration in plasma [µg/mL]
Rat [17] | 40.8
Rat [18] | 28.1

concentration in plasma [µg/mL]
Conditions | 1 h | 2 h | 3 h
Rat [19] | 24.7 | – | 1.07
Rat [20] | – | 3.65 | 0.919

NC=O [Formamide]
Conditions | concentration in plasma [µg/mL]
Rat [21] | 41.4

Conditions | concentration in plasma [µg/mL]
Rat [22], 1.5 h | 41.8
Rat [22], 30 h | 6.9
Rat [23], 1 h | 35.3
Rat [23], 3 h | 30.5
Rat [24], 1 h | 45.3
Rat [24], 72 h | 2.6
Rat [25], 2 h | 197
Rat [25], 5 min | 48.2
Rat [26], 1 h | 181
Rat [26], 3 h | 135
Rat [27], 1.5 h | 50.1
Rat [27], 30 h | 17.9
Rat [28], 5 min | 39.6
Rat [28], 36 h | 3.8
Rat [29], 0.5 h | 156
Rat [29], 48 h | 9.8
Rat [30], 8 h | 86.7
Rat [30], 12 h | 70.6

c1ccncc1 [Pyridine]
Conditions | concentration in plasma
Rat [31], 0.25 h | 3.8 µg/mL
Rat [31], 6 h | 1.67 µg/mL
Rat [32], 0.5 h | 3.04 µg/mL
Rat [32], 6 h | 1.9 µg/mL
Rat [33], 4 h | 17.1 µg/mL
Rat [33], 5 min | 9.57 µg/mL
Rat [35], 3 h | 2550 ng/mL
Rat [35], 10 h | 81.3 ng/mL
Rat [37], 2 h | 18 µg/mL
Rat [37], 14 h | 10.5 µg/mL

Conditions | concentration in plasma [µg/mL]
Rat [34] | 29.8
Rat [36] | 94.2
